Reference: PubChem BioAssay
This list was built around the results that the source calls inconclusive (neither active nor inactive); the mix of calls is not that of the screen. The source made the active and inactive calls.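 How the source made its calls: active means thallium flux slope above the same plate's solvent-control mean plus 3 SD in both duplicate wells; inconclusive means duplicate wells that disagreed; inactive means the rest.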

Assay: native HEK Tl+ uptake effects, second counter-screen – HEK cells, counterscreen 2, counter-screen for KCC2 modulator project, confirmation (AID 1718);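 further: run without ouabain in cells lacking the KCC2 cotransporter; slope of fluorescence scaled to its starting value between 10 and 20 s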
Conditions: HEK293 parental, thallium flux FluoZin-2 fluorescence slope; at 10 µM
Procedure, shortened: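 Assay system – untransfected HEK cells, thallium influx assay · Buffer or medium – HBSS with 20 mM HEPES for dye loading · Doses – single 10 µM final compound dose, 0.1% DMSO · Times – 37 °C overnight growth, 48 min FluoZin2-AM loading · Detection – FluoZin-2 fluorescence kinetics · Benchmarks – bumetanide 2 mM as positive control · Repeats – Per-replicate slope values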

Compound	thallium flux slope
Cc1nnc(SCC(=O)NNC(=O)c2ccco2)n1-c1cccc(Cl)c1	inconclusive: 0.0106
O=C(CSc1nnc(Cc2ccccc2)o1)c1ccc(F)cc1	inactive: 0.0103
S=c1nc(Cc2ccc(Cl)cc2)[nH]c2ccccc12	active: 0.0435
CCOC(=O)C1=C(CC)Nc2ccccc2N/C1=N\S(=O)(=O)c1cc(Br)ccc1Br	inconclusive: 0.00912
CCCCn1c(=S)[nH]c2ncccc2c1=O	active: 0.0266
CC(=O)c1nc2ccccc2n1S(=O)(=O)c1ccc(C)cc1	inactive: 0.00998
O=C(O)c1ccc(NC(=S)NC(=O)c2cccc(COc3ccccc3)c2)cc1	inactive: 0.011
COc1ccc(C2C(C(N)=O)=C(C)Nc3nc(-c4ccccc4)nn32)cc1OC (stereo unspecified)	inconclusive: 0.0119
CC(C)(C)c1ccc(/C=N/NC(=S)Nc2cccnc2)cc1	active: 0.0108
CC1Cc2ccccc2N1C(=O)CSc1ncc(-c2ccc(F)cc2)n1C (stereo unspecified)	inconclusive: 0.00946
O=C(NC(=S)Nc1ccc(CN2CCCCC2)cc1)c1ccco1	inconclusive: 0.0116
CSc1sc(-c2n[nH]c(=S)n2C)c2c1C=CCC2	inconclusive: 0.0105
CCN(c1cccc(C)c1)S(=O)(=O)c1cccc2nsnc12	active: 0.00903
CCN(Cc1ccccc1)C(=O)c1cc(COc2c(F)cccc2F)on1	inconclusive: 0.0108
O=C(Cn1cnc2ccccc2c1=O)Nc1nnc(SCc2ccccc2)s1	inconclusive: 0.01
Cc1cccc(N/C(=N\S(=O)(=O)c2ccccc2)C(F)(F)F)c1	inactive: 0.0111
